Here are results for 67 sequences from the supplement of paper PMC10126150.

Sequences with one replicate were seen in a single cluster, so their values are uncertain.

The subject of this data set is ATP. Put plainly: switch fluorescence ratio, 500 uM ATP over buffer (Cy3 cluster intensity, sum of 5 cycles each) (fold (ratio)); higher = stronger signal-on switching upon ATP binding; sequences stand for … in TCGTCGGCAGCGTCAGATGTGTATAAGAGACAGTTTTTTTTTTTTTTTTTTTTTTTTT…TC. As to conditions: aptamer strand: ATP DNA aptamer (quencher-CACCTGGGGGAGTATTGCGGAGGAAGG + anchor), 100 nM annealed; ATP concentration: 500 uM; one replicate. Summed up:
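For every switch-domain sequence, the fluorescence ratio is the mean of per-cluster values, each being summed target-cycle Cy3 intensity over summed buffer-cycle Cy3 intensity. Clusters outside 100-1000 RFU were excluded. On a modified Illumina MiSeq flow-cell, the Cy3-labelled switching-strand clusters were annealed to 100 nM quencher-labelled ATP aptamer, imaged in selection buffer and then after 15 min with 500 uM ATP at 22 °C. Five such cycles were run, with NaOH stripping and re-annealing between them.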
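Note: ATP exposure 15 min at 22 °C before imaging.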

For AGCCACAGGA, the switch fluorescence ratio was 1.04. With TTATGCAGAT, the switch fluorescence ratio was 0.947.

As to ATGCGGTAAT, the switch fluorescence ratio was 0.973. Consider GACAGCTTTT, for which the switch fluorescence ratio was found to be 0.999. The same measure for GCGGATGGTA: 1.02; for ATGTTGCATG: 0.972. The result for TGCGTATGCG reads 1.13; that for GGCGACGGTT, 0.989; that for TTATATCATT, 1. As for TTAGTGATT, the switch fluorescence ratio is 0.983.

For ATATTGTAT, the switch fluorescence ratio worked out at 1.03. The result for TTGAAACAGC reads 0.991. The result for GGTACGTGCT reads 1.04; that for GGATTCCATG, 1.02; that for ATGTACACGG, 1.09. The result for AAAGAATTAT reads 0.938; that for TAGGAAAGCA, 1.05; that for CAACGCCTTT, 0.993. Turning to CGGAAAGGCT, the switch fluorescence ratio worked out at 1.03. As to GCGGCATTAA, the switch fluorescence ratio was 1.06. The result for CTAGGCCGAG reads 0.869; that for CTAGCTGTT, 0.982; that for GGCTGGGTTC, 0.97.

In the case of CACATACGAC, the switch fluorescence ratio was 1.46.

With CAGTCGATCG, the switch fluorescence ratio amounted to 0.965.

With TTGCGCACGT, the switch fluorescence ratio was 1.05.

GGTTCCTCA: the switch fluorescence ratio was found to be 1.02.

Regarding TCTAGGCTGC, the switch fluorescence ratio turned out to be 0.967. The result for TGTGATAAGT reads 0.955; that for ATCTTTTCCG, 1.04.

For the sequence ATTTGTTTGG, the switch fluorescence ratio worked out at 0.973. The same measure for GCTTTCATTA: 1.02. In the case of GCTAGCGGTT, the switch fluorescence ratio is 1.03.

Take AGTAGATGTG: the switch fluorescence ratio was 1.01. The same measure for GTGTAGTGGC: 0.988. For TCGCGATTCT, the switch fluorescence ratio was 1.2. Take TCCCCAGGTT: the switch fluorescence ratio turned out to be 1.13. The result for GAAGTAAGCG reads 1.01; that for TTTTTGAATA, 0.982; that for ATCACGGT, 0.979.

With ATCACGAGTG, the switch fluorescence ratio stood at 0.999.

For GGGTTGGGCG, the switch fluorescence ratio amounted to 0.972. The result for TAGTTCAGTA reads 0.999; that for TGGCCCCGGA, 1.41; that for TTTAAAACAC, 1.04. The same measure for ATGGATGTGA: 1.03; for TATTTTCACA: 1.04.

Consider GCTGGGCGTT, for which the switch fluorescence ratio turned out to be 1.04. The same measure for ATAGCTCAGT: 1.01; for AATCGGATAT: 1.03; for CGATGGCAGA: 1.04. The same measure for TGAGGTCCGG: 0.956; for CTATCATGGG: 0.989; for ACATTTGGAG: 1.02. The same measure for AACTGTGGC: 1.02; for CTGAGTGCG: 1.07; for AGCTAAGGCT: 0.995.

As for ACAAAAATG, the switch fluorescence ratio was 1.06. With TTGTCGTAT, the switch fluorescence ratio came out at 0.988.

Turning to GCTCGGCTGT, the switch fluorescence ratio turned out to be 1.08. On to TCTTTCTA, for which the switch fluorescence ratio worked out at 0.983.

GGTATCCAGC: the switch fluorescence ratio was 1.01.

As to TATATGGGCA, the switch fluorescence ratio stood at 1.02. The same measure for TTTCAGCTGC: 1.02. With CATATCCTAT, the switch fluorescence ratio was 1.03. The same measure for AATTGTACCG: 1.02.

In the case of ACCTACGCGT, the switch fluorescence ratio is 1.59.
